From patent US20170305996A1 (KOREA PRIME PHARM, published 2017)
Blank lines part the entries; values can stand above or below the binder they belong to.

Legend:
[1] = target: T1, VEGF-A165 (UniProt P15692-4 27-191); assay: cell-based or functional assay
T1 sequence (looked up): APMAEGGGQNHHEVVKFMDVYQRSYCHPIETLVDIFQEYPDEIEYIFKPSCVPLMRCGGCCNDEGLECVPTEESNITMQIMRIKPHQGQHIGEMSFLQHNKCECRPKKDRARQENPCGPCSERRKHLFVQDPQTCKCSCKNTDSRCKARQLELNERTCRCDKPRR

[2] = target: T1, VEGF-A165; assay: ELISA, maximum binding (Example 4)
[3] = target: T2, VEGF-A121 (UniProt P15692-9 27-147); assay: ELISA, maximum binding (Example 4)
T2 construct: Bought from R&D systems; also called VEGF121
T2 sequence (looked up): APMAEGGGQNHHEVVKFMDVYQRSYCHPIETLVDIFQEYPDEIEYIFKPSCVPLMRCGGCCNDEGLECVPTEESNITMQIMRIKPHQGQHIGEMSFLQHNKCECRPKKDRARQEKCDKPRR

[4] = target: T3, PIGF (placental growth factor) (UniProt P49763-2 21-149, limits assumed); assay: ELISA, maximum binding (Example 4)
T3 construct: also called PLGF; placenta growth factor
T3 sequence (looked up): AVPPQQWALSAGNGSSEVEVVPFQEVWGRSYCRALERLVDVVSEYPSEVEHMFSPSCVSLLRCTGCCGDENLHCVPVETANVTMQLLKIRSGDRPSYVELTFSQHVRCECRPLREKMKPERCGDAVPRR

[5] = target: T1, VEGF-A165; assay: ELISA, maximum binding, against aflibercept
[6] = target: T2, VEGF-A121; assay: ELISA, maximum binding, against aflibercept
[7] = target: T3, PIGF (placental growth factor); assay: ELISA, maximum binding, against aflibercept

- endothelial cell migration inhibition rate IC50 (nM); HUVEC Transwell invasion assay with VEGF 350 ng/ml [1]: 20.1 nM
- Bmax (OD) [2]: 1.25 OD
- Bmax (OD) [3]: 1.45 OD
- Bmax (OD) [4]: 2.21 OD
B1: KP-VR4 (aflibercept): human VEGFR1 domain 2 and VEGFR2 domain 3 fused to human IgG1 Fc domain (Fc fusion)
chain: SDTGRPFVEMYSEIPEIIHMTEGRELVIPCRVTSPNITVTLKKFPLDTLIPDGKRIIWDSRKGFIISNATYKEIGLLTCEATVNGHLYKTNYLTHRQTNTIIDVVLSPSHGIELSVGEKLVLNCTARTELNVGIDFNWEYPSSKHQHKKLVNRDLKTQSGSEMKKFLSTLTIDGVTRSDQGLYTCAASSGLMTKKNSTFVRVHEKA[human IgG1 Fc skipped]
notes: The number of copies follows the Fc dimer described for the constructs; also called VEGF-Trap; Eylea

- endothelial cell migration inhibition rate IC50 (nM); HUVEC Transwell invasion assay with VEGF 350 ng/ml [1]: 11 nM
- Bmax (OD) [2]: 1.93 OD
- Bmax (OD) [3]: 2.1 OD
- Bmax (OD) [4]: 3.42 OD
- increase of Bmax against aflibercept [5]: 54.4%
- increase of Bmax against aflibercept [6]: 44.8%
- increase of Bmax against aflibercept [7]: 54.3%
B2: KP-VR2 (VEGFR fusion protein: two human VEGFR1 domain2 fused in sequence to each heavy chain of human IgG1 Fc domain) (Fc fusion)
chain: SDTGRPFVEMYSEIPEIIHMTEGRELVIPCRVTSPNITVTLKKFPLDTLIPDGKRIIWDSRKGFIISNATYKEIGLLTCEATVNGHLYKTNYLTHRQTNTIISDTGRPFVEMYSEIPEIIHMTEGRELVIPCRVTSPNITVTLKKFPLDTLIPDGKRIIWDSRKGFIISNATYKEIGLLTCEATVNGHLYKTNYLTHRQTNTIIA[human IgG1 Fc skipped]
notes: also called the fusion protein of the present invention
